Cytotoxicity call and growth inhibition call data for 31 molecules are collected here from the antibiotic and cytotoxicity screens of Wong et al. (2023).

One test concerns HSkMC. In words: cytotoxicity call (relative viability < 0.9). To be noted: 10 µM.
For the next test, the system named is S. aureus RN4220. Description: growth inhibition call (relative growth <= 0.2). Conditions: 50 µM.

Some of the results follow.

For the molecule `O=C(CCCl)NCCc1ccccc1`, the cytotoxicity call in the test on HSkMC was “inactive”. Also, in the test with S. aureus RN4220, the growth inhibition call is “inactive”.

As for `Cc1ccc(S[C@]2(C(=O)NC(C)C)CC(=O)N(Cc3ccccc3Cl)[C@@H]2c2ccc(CO)cc2)cc1`, the cytotoxicity call in the test with HSkMC was “inactive”. The growth inhibition call with S. aureus RN4220 was “inactive”.

As for `Nc1nc(=O)c2c([nH]1)NCC(CNc1ccc(C(=O)NC(CCC(=O)O)C(=O)O)cc1)=N2` (configuration not stated), in the test with HSkMC, the cytotoxicity call was “inactive”. In addition, the growth inhibition call in the test with S. aureus RN4220 is “inactive”.

Consider `COc1ccc(cc1)S(=O)(=O)N1CC[C@]2(CC1)CN([C@@H](CO)c1c2c2ccc(cc2n1C)OC)C(=O)CN(C)C`, for which the cytotoxicity call with HSkMC was “inactive”. In addition, the growth inhibition call in the test with S. aureus RN4220 is “inactive”.

As for `C[C@H](CO)N1C[C@H](C)[C@H](CN(C)S(=O)(=O)c2ccc(Cl)cc2)OCCCC[C@H](C)Oc2ccc(NC(=O)C3CCCCC3)cc2C1=O`, the cytotoxicity call in the test with HSkMC was “inactive”. For the same molecule, in the test on S. aureus RN4220, the growth inhibition call was “inactive”.

Turning to `COc1ccc(CN(C)C[C@@H]2Oc3ccc(NC(=O)Nc4ccc(C(F)(F)F)cc4)cc3CC(=O)N([C@H](C)CO)C[C@H]2C)cc1`, the cytotoxicity call in the test on HSkMC was “inactive”. Moreover, the growth inhibition call in the test with S. aureus RN4220 was “inactive”.

Consider `CCCOc1ccc(S(=O)(=O)NCC[C@@H]2CCCN2C)cc1-c1nc2c(CCC)nn(C)c2c(=O)[nH]1`, for which the cytotoxicity call in the test on HSkMC was “inactive”. The growth inhibition call in the test on S. aureus RN4220 was “inactive”.

Turning to `Cc1noc(C)c1NC(=O)Nc1ccc2c(c1)C(=O)N([C@H](C)CO)C[C@@H](C)[C@@H](CN(C)C(=O)Nc1ccc(C(F)(F)F)cc1)O2`, the cytotoxicity call with HSkMC is “inactive”. Besides, the growth inhibition call in the test with S. aureus RN4220 was “inactive”.

`C[C@H]1CN([C@@H](C)CO)C(=O)c2cccc(NC(=O)c3ccncc3)c2O[C@H]1CN(C)Cc1ccc(C(=O)O)cc1`: the cytotoxicity call in the test with HSkMC was “inactive”. Besides, the growth inhibition call with S. aureus RN4220 is “inactive”.

Take `C[C@H](CO)N1C[C@H](C)[C@@H](CN(C)Cc2ccccc2)Oc2ccc(NC(=O)CCCN(C)C)cc2C1=O`: the cytotoxicity call in the test on HSkMC is “inactive”. Further, the growth inhibition call in the test on S. aureus RN4220 is “inactive”.

Consider `CO[C@@H]1[C@H](O[P@@](=O)(OC[C@H]2O[C@@H](n3cnc4c(N)ncnc43)C[C@@H]2O)SCOC(=O)OC(C)C)[C@@H](CO)O[C@H]1n1ccc(=O)[nH]c1=O`, for which the cytotoxicity call with HSkMC was “inactive”. The growth inhibition call with S. aureus RN4220 is “inactive”.

Turning to `O=c1cc[nH]c(C(F)(F)F)n1`, the cytotoxicity call with HSkMC is “inactive”. Besides, the growth inhibition call in the test with S. aureus RN4220 was “inactive”.

As for `C=CC(=O)Nc1ccccc1[C@@H](CCc1ccc(OC)c(OC)c1)OC(=O)[C@@H]1CCCCN1C(=O)C(=O)C(C)(C)CC`, the cytotoxicity call with HSkMC was “inactive”. In the test with S. aureus RN4220, the growth inhibition call is “inactive”.

For the molecule `C[C@@H]1CN([C@H](C)CO)C(=O)Cc2cc(NC(=O)Nc3ccc(C(F)(F)F)cc3)ccc2O[C@H]1CN(C)Cc1ccc(C(F)(F)F)cc1`, in the test on HSkMC, the cytotoxicity call was “active”. In the test on S. aureus RN4220, the growth inhibition call is “inactive”.

As to `C[C@@H]1CCCCO[C@H](CN(C)CC2CC2)[C@H](C)CN([C@@H](C)CO)C(=O)c2cc(NC(=O)Cc3ccccc3)ccc2O1`, in the test on HSkMC, the cytotoxicity call was “inactive”. Further, the growth inhibition call with S. aureus RN4220 was “inactive”.

For the molecule `Cc1ccc(S(=O)(=O)N(C)C[C@@H]2Oc3ccc(NS(=O)(=O)c4cccs4)cc3CC(=O)N([C@H](C)CO)C[C@@H]2C)cc1`, in the test with HSkMC, the cytotoxicity call was “inactive”. In addition, the growth inhibition call in the test on S. aureus RN4220 was “inactive”.

For the molecule `C[C@H]1CCCCO[C@H](CN(C)C(=O)Nc2cccc3ccccc23)[C@@H](C)CN([C@@H](C)CO)C(=O)c2cc(NC(=O)NC3CCCCC3)ccc2O1`, the cytotoxicity call in the test with HSkMC was “inactive”. In addition, the growth inhibition call in the test on S. aureus RN4220 was “inactive”.

As for `Cc1ccc(S(=O)(=O)N(C)C[C@@H]2Oc3ccc(NC(=O)NC(C)C)cc3CC(=O)N([C@@H](C)CO)C[C@H]2C)cc1`, the cytotoxicity call in the test on HSkMC is “inactive”. In addition, the growth inhibition call with S. aureus RN4220 is “inactive”.

Regarding `C[C@@H]1COCCS(=O)(=O)N1C`, the cytotoxicity call with HSkMC is “inactive”. The growth inhibition call with S. aureus RN4220 was “inactive”.

As for `CC(C)(C)[S@@](=O)N1Cc2cc(C(=O)N3CCCCC3)nc(-c3cccc(C4=CCCC4)c3)c2[C@H]1CCO`, in the test with HSkMC, the cytotoxicity call was “inactive”. Besides, the growth inhibition call in the test with S. aureus RN4220 was “inactive”.

As for `C[C@H]1CN([C@@H](C)CO)C(=O)c2cc(C#CCC3CCCC3)cnc2O[C@@H]1CN(C)C(=O)c1cnccn1`, the cytotoxicity call in the test with HSkMC was “inactive”. In addition, in the test on S. aureus RN4220, the growth inhibition call is “inactive”.

In the case of `COCC#Cc1ccc([C@@H]2[C@@H](CO)N3C(=O)CN(C(=O)CN4CCOCC4)C[C@H]23)cc1`, the cytotoxicity call with HSkMC is “inactive”. For the same molecule, in the test on S. aureus RN4220, the growth inhibition call was “inactive”.

On to `Cc1ccc(S(=O)(=O)Nc2ccc3c(c2)C(=O)N([C@H](C)CO)C[C@@H](C)[C@H](CN(C)CC2CCCCC2)OCCCC[C@@H](C)O3)cc1`, for which, in the test on HSkMC, the cytotoxicity call is “inactive”. Also, in the test with S. aureus RN4220, the growth inhibition call is “inactive”.

For the molecule `C[C@@H]1CCCCO[C@H](CN(C)Cc2ccccc2)[C@@H](C)CN([C@@H](C)CO)C(=O)c2cc(NC(=O)Nc3ccc(F)cc3)ccc2O1`, the cytotoxicity call in the test with HSkMC is “inactive”. Also, in the test on S. aureus RN4220, the growth inhibition call was “inactive”.

For `C[C@H]1CCCCO[C@H](CN(C)C(=O)NC2CCCCC2)[C@@H](C)CN([C@@H](C)CO)C(=O)c2cc(NC(=O)c3ccncc3)ccc2O1`, the cytotoxicity call with HSkMC was “inactive”. Moreover, in the test with S. aureus RN4220, the growth inhibition call was “inactive”.

With `Cc1noc(C)c1S(=O)(=O)Nc1ccc2c(c1)C(=O)N([C@H](C)CO)C[C@@H](C)[C@H](CN(C)Cc1ccccc1)OCCCC[C@H](C)O2`, the cytotoxicity call in the test with HSkMC was “inactive”. The growth inhibition call with S. aureus RN4220 is “inactive”.

In the case of `C[C@@H]1CN([C@H](C)CO)C(=O)c2cccc(NC(=O)Nc3ccc4c(c3)OCO4)c2O[C@@H]1CN(C)Cc1ccc(C(=O)Nc2ccccc2N)cc1`, the cytotoxicity call with HSkMC is “inactive”. Besides, in the test with S. aureus RN4220, the growth inhibition call is “inactive”.

Regarding `C[C@@H]1CN([C@H](C)CO)C(=O)CCCn2cc(nn2)CO[C@H]1CN(C)S(=O)(=O)c1ccc2ccccc2c1`, the cytotoxicity call in the test with HSkMC was “inactive”. Besides, in the test with S. aureus RN4220, the growth inhibition call is “inactive”.

On to `O=c1[nH]snc1N1CCCCC1`, for which the cytotoxicity call in the test with HSkMC was “inactive”. Moreover, the growth inhibition call with S. aureus RN4220 is “inactive”.

For the molecule `C[C@H]1CN([C@@H](C)CO)S(=O)(=O)c2ccc(C#CCN(C)C)cc2O[C@H]1CN(C)S(C)(=O)=O`, the cytotoxicity call with HSkMC was “inactive”. Moreover, the growth inhibition call with S. aureus RN4220 was “inactive”.

`Cc1cc(C(=O)Nc2cccc3c2O[C@H](CN(C)C(=O)NC(C)C)[C@@H](C)CN([C@@H](C)CO)C3=O)n(C)n1`: the cytotoxicity call in the test on HSkMC (human skeletal muscle cells) was “inactive”. Further, the growth inhibition call in the test on S. aureus RN4220 is “inactive”.
